# Measured values published in the supplement of paper PMC8728848.
# The list shows a part of the results.
# B1: MGL6A (Homo sapiens) (protein)
# chain: MTRTYENFQYLENKVKVQGFKNGPLPLQSLLQRLCSGPCHLLLSLGLGLLLLVIICVVGFQNSKFQRDLVTLRTDFSNFTSNTVAEIQALTSQGSSLEETIASLKAEVEGFKQERQAVHSEMLLRVQQLVQDLKKLTCQVATLNNNGEEASTEGTCCPVNWVEHQDSCYWFSHSGMSWAEAEKYCQLKNAHLVVINSREEQNFVQKYLGSAYTWMGLSDPEGAWKWVDGTDYATGFQNWKPGQPDDWQGHGLGGGEDCAHFTPDGRWNDDVCQRPYHWVCEAGLGQTSQESH
# Columns and labels:
# Assay in all cases: glycan array binding signal (z-score within array); higher = stronger binding
# Settings in all cases: glycan notation: IUPAC condensed, linker removed; mutation: H262T
# [1] = target: Gal(b1-4)GlcNAc(b1-2)Man(a1-6)[GlcNAc(b1-2)Man(a1-3)]Man(b1-4)GlcNAc(b1-4)GlcNAc
# In short: (§1)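 The binding signal is a Z-score computed within each array. Data were drawn from 3228 arrays in the Consortium for Functional Glycomics database, restricted to those with a known protein sequence. Scores were averaged over arrays of the same protein sequence at different concentrations or buffers, and over linkers, and negative values can be taken as non-binding.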
# [2] = target: Gal(b1-4)GlcNAc(b1-2)Man(a1-6)[Man(a1-3)]Man(b1-4)GlcNAc(b1-4)GlcNAc
# In short: as §1
# [3] = target: Gal(b1-4)GlcNAc(b1-2)[Gal(b1-4)GlcNAc(b1-4)]Man(a1-3)[Gal(b1-4)GlcNAc(b1-2)Man(a1-6)]Man(b1-4)GlcNAc(b1-4)GlcNAc
# In short: as §1
# [4] = target: Gal(b1-4)GlcNAc(b1-2)[Gal(b1-4)GlcNAc(b1-4)]Man(a1-3)[Gal(b1-4)GlcNAc(b1-2)[Gal(b1-4)GlcNAc(b1-6)]Man(a1-6)]Man(b1-4)GlcNAc(b1-4)GlcNAc
# In short: as §1
# [5] = target: Gal(b1-4)GlcNAc(b1-2)[Gal(b1-4)GlcNAc(b1-4)]Man(a1-3)[GlcNAc(b1-4)][Gal(b1-4)GlcNAc(b1-2)Man(a1-6)]Man(b1-4)GlcNAc(b1-4)GlcNAc
# In short: as §1
# [6] = target: Gal(b1-4)GlcNAc(b1-2)[Gal(b1-4)GlcNAc(b1-4)]Man(a1-3)[GlcNAc(b1-4)][Gal(b1-4)GlcNAc(b1-2)[Gal(b1-4)GlcNAc(b1-6)]Man(a1-6)]Man(b1-4)GlcNAc(b1-4)GlcNAc
# In short: as §1
# [7] = target: Gal(b1-4)GlcNAc(b1-2)[Gal(b1-4)GlcNAc(b1-6)]Man(a1-6)[Gal(b1-4)GlcNAc(b1-2)Man(a1-3)]Man(b1-4)GlcNAc(b1-4)GlcNAc
# In short: as §1
# [8] = target: Gal(b1-4)GlcNAc(b1-2)[Gal(b1-4)GlcNAc(b1-6)]Man(a1-6)[Gal(b1-4)GlcNAc(b1-2)Man(a1-3)]Man(b1-4)GlcNAc(b1-4)[Fuc(a1-6)]GlcNAc
# In short: as §1
# [9] = target: Gal(b1-4)GlcNAc(b1-2)[Gal(b1-4)GlcNAc(b1-6)]Man(a1-6)[GlcNAc(b1-4)][Gal(b1-4)GlcNAc(b1-2)Man(a1-3)]Man(b1-4)GlcNAc(b1-4)GlcNAc
# In short: as §1
# [10] = target: Gal(b1-4)GlcNAc(b1-2)[Gal(b1-4)GlcNAc(b1-6)]Man(a1-6)[GlcNAc(b1-4)][Gal(b1-4)GlcNAc(b1-2)[Gal(b1-4)GlcNAc(b1-4)]Man(a1-3)]Man(b1-4)GlcNAc(b1-4)[Fuc(a1-6)]GlcNAc
# In short: as §1
# [11] = target: Gal(b1-4)GlcNAc(b1-3)Gal(b1-3)GalNAc
# In short: as §1
# [12] = target: Gal(b1-4)GlcNAc(b1-3)Gal(b1-3)GlcNAc
# In short: as §1
# [13] = target: Gal(b1-4)GlcNAc(b1-3)Gal(b1-4)Glc
# In short: as §1
# [14] = target: Gal(b1-4)GlcNAc(b1-3)Gal(b1-4)GlcNAc
# In short: as §1
# [15] = target: Gal(b1-4)GlcNAc(b1-3)Gal(b1-4)GlcNAc(b1-2)Man(a1-3)[Gal(b1-4)GlcNAc(b1-3)Gal(b1-4)GlcNAc(b1-2)Man(a1-6)]Man(b1-4)GlcNAc(b1-4)GlcNAc
# In short: as §1
# [16] = target: Gal(b1-4)GlcNAc(b1-3)Gal(b1-4)GlcNAc(b1-2)Man(a1-3)[Gal(b1-4)GlcNAc(b1-3)Gal(b1-4)GlcNAc(b1-2)Man(a1-6)]Man(b1-4)GlcNAc(b1-4)[Fuc(a1-6)]GlcNAc
# In short: as §1
# [17] = target: Gal(b1-4)GlcNAc(b1-3)Gal(b1-4)GlcNAc(b1-2)[Gal(b1-4)GlcNAc(b1-3)Gal(b1-4)GlcNAc(b1-6)]Man(a1-6)[Gal(b1-4)GlcNAc(b1-3)Gal(b1-4)GlcNAc(b1-2)Man(a1-3)]Man(b1-4)GlcNAc(b1-4)GlcNAc
# In short: as §1
# [18] = target: Gal(b1-4)GlcNAc(b1-3)Gal(b1-4)GlcNAc(b1-2)[Gal(b1-4)GlcNAc(b1-3)Gal(b1-4)GlcNAc(b1-6)]Man(a1-6)[Gal(b1-4)GlcNAc(b1-3)Gal(b1-4)GlcNAc(b1-2)Man(a1-3)]Man(b1-4)GlcNAc(b1-4)[Fuc(a1-6)]GlcNAc
# In short: as §1
# [19] = target: Gal(b1-4)GlcNAc(b1-3)Gal(b1-4)GlcNAc(b1-3)Gal(b1-4)GlcNAc
# In short: as §1
# [20] = target: Gal(b1-4)GlcNAc(b1-3)Gal(b1-4)GlcNAc(b1-3)Gal(b1-4)GlcNAc(b1-2)Man(a1-3)[Gal(b1-4)GlcNAc(b1-3)Gal(b1-4)GlcNAc(b1-3)Gal(b1-4)GlcNAc(b1-2)Man(a1-6)]Man(b1-4)GlcNAc(b1-4)GlcNAc
# In short: as §1
# [21] = target: Gal(b1-4)GlcNAc(b1-3)Gal(b1-4)GlcNAc(b1-3)Gal(b1-4)GlcNAc(b1-2)Man(a1-3)[Gal(b1-4)GlcNAc(b1-3)Gal(b1-4)GlcNAc(b1-3)Gal(b1-4)GlcNAc(b1-2)Man(a1-6)]Man(b1-4)GlcNAc(b1-4)[Fuc(a1-6)]GlcNAc
# In short: as §1
# [22] = target: Gal(b1-4)GlcNAc(b1-3)Gal(b1-4)GlcNAc(b1-3)Gal(b1-4)GlcNAc(b1-2)[Gal(b1-4)GlcNAc(b1-3)Gal(b1-4)GlcNAc(b1-3)Gal(b1-4)GlcNAc(b1-6)]Man(a1-6)[Gal(b1-4)GlcNAc(b1-3)Gal(b1-4)GlcNAc(b1-3)Gal(b1-4)GlcNAc(b1-2)Man(a1-3)]Man(b1-4)GlcNAc(b1-4)[Fuc(a1-6)]GlcNAc
# In short: as §1
binder,measurement,setting,value
B1,glycan array binding signal (z-score),[1],-0.175
same,glycan array binding signal (z-score),[2],-0.167
same,glycan array binding signal (z-score),[3],-0.174
same,glycan array binding signal (z-score),[4],-0.178
same,glycan array binding signal (z-score),[5],-0.174
same,glycan array binding signal (z-score),[6],-0.197
same,glycan array binding signal (z-score),[7],-0.177
same,glycan array binding signal (z-score),[8],-0.172
same,glycan array binding signal (z-score),[9],-0.177
same,glycan array binding signal (z-score),[10],-0.172
same,glycan array binding signal (z-score),[11],-0.181
same,glycan array binding signal (z-score),[12],-0.174
same,glycan array binding signal (z-score),[13],-0.172
same,glycan array binding signal (z-score),[14],-0.176
same,glycan array binding signal (z-score),[15],-0.172
same,glycan array binding signal (z-score),[16],-0.171
same,glycan array binding signal (z-score),[17],-0.157
same,glycan array binding signal (z-score),[18],-0.158
same,glycan array binding signal (z-score),[19],-0.175
same,glycan array binding signal (z-score),[20],-0.169
same,glycan array binding signal (z-score),[21],-0.163
same,glycan array binding signal (z-score),[22],-0.162
